The campaign covered roughly 110,000 compounds. About 230 (0.21%) showed an effect of 50% or more. Some of the results follow.
target: DPAP1 (Plasmodium falciparum, UniProt Q8IIJ9); assay: primary screen, percent inhibition; read by cleavage of a fluorogenic dipeptide substrate; higher = more effect of the substance; design: species or system P. falciparum D10 trophozoite lysates; single well
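Also: 30 min substrate incubation versus DMSO and 10 µM JCP410 controls.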

DPAP1, sequence (Q8IIJ9 whole entry, looked up): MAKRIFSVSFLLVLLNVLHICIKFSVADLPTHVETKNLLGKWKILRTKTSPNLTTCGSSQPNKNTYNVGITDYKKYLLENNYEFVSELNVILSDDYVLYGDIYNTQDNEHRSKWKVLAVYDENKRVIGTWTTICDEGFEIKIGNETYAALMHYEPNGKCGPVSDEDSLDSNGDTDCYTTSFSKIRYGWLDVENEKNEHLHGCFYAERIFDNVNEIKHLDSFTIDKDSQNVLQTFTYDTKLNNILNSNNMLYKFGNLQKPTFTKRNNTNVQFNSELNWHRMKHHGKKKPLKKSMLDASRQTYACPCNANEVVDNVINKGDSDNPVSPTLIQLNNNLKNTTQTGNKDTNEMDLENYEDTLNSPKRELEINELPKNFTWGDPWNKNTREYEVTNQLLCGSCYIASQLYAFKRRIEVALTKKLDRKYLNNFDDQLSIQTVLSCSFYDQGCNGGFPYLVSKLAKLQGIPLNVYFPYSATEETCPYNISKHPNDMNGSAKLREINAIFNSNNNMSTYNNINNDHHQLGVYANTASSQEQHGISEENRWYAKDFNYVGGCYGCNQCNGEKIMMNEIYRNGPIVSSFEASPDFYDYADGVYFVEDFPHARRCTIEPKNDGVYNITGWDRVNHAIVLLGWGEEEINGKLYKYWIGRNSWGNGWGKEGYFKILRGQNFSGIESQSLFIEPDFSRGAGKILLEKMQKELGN

Compared with `COc1ccc(CN2CCN(Cc3cccc(Cl)c3)CC2)cc1`, `CCOc1ccc(CN2CCCC(O)C2)cc1` (stereo not drawn) is lower in “% Inhibition @ 10 uM” value: -0.914% for the first, -4.35% for the second.

Compared with `CCOc1ccccc1C1CC(=O)NC(C)=C1C(=O)OC1CCCC1` (stereo not drawn), `COc1ccc(COC(=O)C2=C(C)NC(=O)CC2c2ccccc2Cl)cc1` (stereo not drawn) is lower in “% Inhibition @ 10 uM” value: 2.54% for the first, -10.3% for the second.

First: CCC/N=C(\C)c1c(CCC)nn(-c2nc3ccccc3s2)c1O
Second: CC(=O)c1c(C)nn(-c2nc3ccccc3s2)c1O
The “% Inhibition @ 10 uM” value of the first is higher: 4.33% for the first, 3.16% for the second.

Compared with `Cc1sc(NC(=O)c2ccco2)c(C#N)c1C`, `CC(C)Cc1nnc2sc(NC(=O)c3ccccc3)nn12` is higher in “% Inhibition @ 10 uM” value: 1.84% for the first, 6.38% for the second.

First: CC(=O)N1CCN(c2ccc(NC(=O)Cc3ccccc3)cc2)CC1
Second: CC(=O)c1ccc(OCC(O)CN2CCC(Cc3ccccc3)CC2)cc1 (stereo not drawn)
The “% Inhibition @ 10 uM” value of the first is higher: 14.6% for the first, 1.87% for the second.

Compared with `CCN(Cc1ccccc1)C(=O)c1ccc(C)cc1`, `CC(C)(C)c1ccc(CN(Cc2ccco2)C(=O)COc2ccccc2)cc1` is lower in “% Inhibition @ 10 uM” value: 0.135% for the first, -1.07% for the second.

Going from `CSc1nsc(SC)c1NC(=O)OC1CCCCC1` to `O=C(NC1CCCC1)c1ccc(Cl)c([N+](=O)[O-])c1`, the “% Inhibition @ 10 uM” value falls from 1.46% to -4.91%.

First: Cc1cc(C(=O)CN2CCC(C)CC2)c(C)n1-c1ccc(F)cc1
Second: O=C(CSc1nnc(Cc2cc(O)nc(O)n2)n1-c1ccc(F)cc1)N1CCOCC1
The “% Inhibition @ 10 uM” value of the first is lower: 0.26% for the first, 5.32% for the second.

Going from `COc1ccc(C2CNC(=O)C2C(=O)O)cc1` (stereo not drawn) to `COc1ccc(/C=C2/N=C(N)SC2=O)cc1`, the “% Inhibition @ 10 uM” value rises from -2.42% to -1.74%.

Going from `O=C(O)C1=C(c2ccccc2)OCCS1` to `O=C(CSc1nc(O)cc(-c2ccccc2)n1)NCC1CCCO1` (stereo not drawn), the “% Inhibition @ 10 uM” value rises from -0.0309% to 2.01%.

First: COc1cc2c(cc1/C=C1/NC(=O)N(Cc3ccccc3)C1=O)OCO2
Second: Cn1cc(C=C2C(=O)OC3(CCCCC3)OC2=O)c2ccccc21
The “% Inhibition @ 10 uM” value of the first is higher: 3.27% for the first, -1.47% for the second.

Going from `CC(C)(C)c1ccc(C(CC(=O)O)NS(=O)(=O)Cc2ccccc2)cc1` (stereo not drawn) to `O=C(Nc1ccc(S(=O)(=O)NCc2ccccc2)cc1)c1ccncc1`, the “% Inhibition @ 10 uM” value falls from 2.72% to -0.251%.

Going from `C#CC(C)(CC)NC(=O)c1cc(OC)c(OC)c(OC)c1` (stereo not drawn) to `CCCCC(=O)Nc1cc(OC)ccc1OC`, the “% Inhibition @ 10 uM” value falls from 5.88% to -3.9%.

First: O=C(O)c1cccc(-n2[nH]c(=O)ccc2=O)c1
Second: Cc1cccc(C(=O)Nc2cccnc2)c1
The “% Inhibition @ 10 uM” value of the first is lower: -3.93% for the first, -0.598% for the second.

Going from `O=C1NCCCc2c1oc1cc(Br)c(O)c(Br)c21` to `O=C1NC(c2c(O)ccc3ccccc23)Nc2sc3c(c21)CCCC3` (stereo not drawn), the “% Inhibition @ 10 uM” value rises from -0.0626% to 1.24%.

Compared with `Cc1ccc(-c2nc(CS(=O)(=O)CC(=O)NCc3cccnc3)c(C)o2)cc1`, `Cc1cc(-c2ccc(C)c(S(=O)(=O)Nc3cccnc3)c2)on1` is higher in “% Inhibition @ 10 uM” value: -1.89% for the first, 1.15% for the second.

Compared with `CCC(C)NC(=O)CCc1c(C)nc2cc(-c3ccccc3OC)nn2c1C` (stereo not drawn), `CCC(C)NC(=O)CS(=O)Cc1nc(-c2cccc(OC)c2)oc1C` (stereo not drawn) is lower in “% Inhibition @ 10 uM” value: 2.93% for the first, 0.689% for the second.

First: Cc1oc2c(c1C(=O)NCCCN1CCOCC1)C(=O)c1ccccc1C2=O
Second: CCOc1cc(CNCCCN2CCOCC2)ccc1OCC(=O)NC(C)(C)C
The “% Inhibition @ 10 uM” value of the first is lower: -3.53% for the first, -3.23% for the second.

Compared with `COc1ccc(N(C(C)C(=O)Nc2ccc(Cl)cc2)S(C)(=O)=O)cc1` (stereo not drawn), `Cc1ccccc1CN(c1ccc(C(=O)Nc2ccc3c(c2)OCCO3)cc1)S(C)(=O)=O` is higher in “% Inhibition @ 10 uM” value: 1.89% for the first, 1.94% for the second.

First: COc1ccc(C2=NC3(CCNCC3)NC2=S)cc1
Second: COc1cccc(C(=O)Nc2nc(-c3ccc(S(=O)(=O)N4CCCC4)cc3)cs2)c1
The “% Inhibition @ 10 uM” value of the first is lower: -1.01% for the first, 7.48% for the second.

Compared with `CCOC(=O)/C(C#N)=C/c1c(Oc2cccc(C)c2C)nc2ccccn2c1=O`, `CCn1cc(C(=O)OCc2ccccc2)c(=O)c2ccc(C)nc21` is lower in “% Inhibition @ 10 uM” value: 77.8% for the first, 1.74% for the second.

First: O=c1/c(=C\c2ccccc2Br)sc2nnc(-c3ccccc3)n12
Second: O=C(O)COc1ccc(/C=c2\sc3nc4ccccc4n3c2=O)cc1
The “% Inhibition @ 10 uM” value of the first is lower: 0.561% for the first, 6.23% for the second.

First: O=C(O)CC1(CC(=O)Nc2cccc(O)c2)CCCC1
Second: O=C(O)C1CCCCC1C(=O)Nc1ccc2c(c1)OCCO2 (stereo not drawn)
The “% Inhibition @ 10 uM” value of the first is higher: 4.39% for the first, -4.82% for the second.

Compared with `Cc1nn(CC(=O)NC(C)c2ccccc2)c(=O)c2c1sc1ccccc12` (stereo not drawn), `Cc1ccccc1CNC(=O)Cn1nc(C)c2c(C)n(-c3ccccc3)nc2c1=O` is lower in “% Inhibition @ 10 uM” value: 2.65% for the first, -2.49% for the second.

Going from `COc1ccc(C2C(C(=O)c3ccc4c(c3)CC(C)O4)=C(O)C(=O)N2Cc2cccnc2)c(OC)c1` (stereo not drawn) to `COc1ccc(C2C(C(=O)c3ccc(Cl)cc3)=C(O)C(=O)N2c2cccnc2)c(OC)c1` (stereo not drawn), the “% Inhibition @ 10 uM” value falls from 4.44% to 0.727%.

Compared with `Cc1cccc(OCCCn2cnc3ccccc32)c1`, `Cc1cccc(OCCCCCCc2c(C)n[nH]c2C)c1` is higher in “% Inhibition @ 10 uM” value: -0.551% for the first, 5.01% for the second.

First: CCOC(=O)c1ccc(OCC2c3cc(OC)c(OC)cc3CCN2C(=S)NCCOC)cc1 (stereo not drawn)
Second: CCCOc1ccc(C2C(C(=O)OC)=CN(C(C)C)C=C2C(=O)OC)cc1OC
The “% Inhibition @ 10 uM” value of the first is lower: 0.457% for the first, 1.66% for the second.

Going from `O=C(O)CSc1c2c(nc3cc(C(=O)N4CCCC4)ccc13)CCCC2` to `Cc1oc(-c2ccc(Cl)cc2)nc1CN1CCC(C(=O)NC2CCCCCC2)CC1`, the “% Inhibition @ 10 uM” value rises from -0.0593% to 0.689%.

Compared with `COc1ccc(OC)c(-c2cc(C(=O)O)c3cc(Br)ccc3n2)c1`, `Cc1ccc(-c2cc(-c3cccs3)nc(Br)c2C#N)c(C)c1` is higher in “% Inhibition @ 10 uM” value: -3.72% for the first, 4.22% for the second.

Going from `Cc1cccc(Cn2c(Sc3nnc(C)s3)nc3c2c(=O)[nH]c(=O)n3C)c1` to `Cc1nc(N2C(=O)c3oc4ccccc4c(=O)c3C2c2ccc(O)cc2)sc1C` (stereo not drawn), the “% Inhibition @ 10 uM” value falls from -4.54% to -6.23%.

Compared with `O=C(O)CSc1ccc(C(F)(F)F)cc1Cl`, `O=C(O)/C=C\C(=O)Nc1ccccc1Cl` is lower in “% Inhibition @ 10 uM” value: -0.0108% for the first, -5.5% for the second.

First: CC(C)Cn1c(=O)c2ccccc2n2c(CCC(=O)NCc3ccc(F)cc3)nnc12
Second: O=c1oc2c3c(ccc2c2ccccc12)OCN(CCc1ccccc1)C3
The “% Inhibition @ 10 uM” value of the first is lower: -4.21% for the first, -0.808% for the second.

Compared with `CC(=O)Nc1ccc(S(=O)(=O)Nc2nc3ccccc3nc2Nc2cccc(S(N)(=O)=O)c2)cc1`, `Cc1cc(NS(=O)(=O)c2ccc(NC(=O)c3ccc4c(c3)OCO4)cc2)nc(C)n1` is lower in “% Inhibition @ 10 uM” value: 1.42% for the first, 0.163% for the second.

Going from `CC(=O)NC(Cc1c[nH]c2ccccc12)C(=O)NCCOc1ccc(C(C)(C)c2ccccc2)cc1` (stereo not drawn) to `O=C(NCCCn1ccnc1)c1cc(-c2ccccc2)nc2ccccc12`, the “% Inhibition @ 10 uM” value falls from 10.6% to -0.116%.

First: Cc1cc(S(=O)(=O)c2cc3ccc(O)c(C)c3oc2=O)ccc1F
Second: Cc1ccc(NC(=O)c2ccc(N3C(=O)C4C5C=CC(C5)C4C3=O)cc2)cc1C (stereo not drawn)
The “% Inhibition @ 10 uM” value of the first is higher: 3.75% for the first, 2.63% for the second.

Compared with `COC(=O)c1ccc(NC(=O)c2cccs2)cc1`, `CC(=O)Nc1ccc(NC2(C)C(=O)c3ccccc3C2=O)cc1` is higher in “% Inhibition @ 10 uM” value: -5.38% for the first, -0.424% for the second.

First: O=C1NCCCC[C@@H]1NC1CCc2ccccc2C1 (stereo partly drawn)
Second: CC1CCCC(C)N1C(=O)c1cc2ccccc2oc1=O (stereo not drawn)
The “% Inhibition @ 10 uM” value of the first is higher: -3.6% for the first, -5.11% for the second.

First: CC1CN(C(=O)Cn2cc(SCC(=O)NC(C)(C)C)c3ccccc32)CC(C)O1 (stereo not drawn)
Second: CN1C(C(=O)N2CCN(C(=O)C(C)(C)C)CC2)=CC(c2ccco2)=NS1(=O)=O
The “% Inhibition @ 10 uM” value of the first is higher: 6.05% for the first, 0.655% for the second.

First: C=CCSc1nc(O)c2cnn(-c3ccc(C)cc3)c2n1
Second: Cc1cc(C)nc(SCCC(=O)Nc2ccc(Br)cc2)n1
The “% Inhibition @ 10 uM” value of the first is lower: -9.18% for the first, -3.65% for the second.

First: CCc1ccc(OCC(=O)Nc2ccc(S(=O)(=O)N3CCCC3)cc2)c(Br)c1
Second: CN(C1CCCCC1)S(=O)(=O)N1CCCC(C(=O)NCc2ccc(Cl)cc2)C1 (stereo not drawn)
The “% Inhibition @ 10 uM” value of the first is higher: 4.22% for the first, 2.27% for the second.

Going from `CCCNC(=O)[C@@H](c1ccccc1)N1Cc2ccccc2C1=O` to `COc1ccccc1CNC(=O)NCc1noc2ccccc12`, the “% Inhibition @ 10 uM” value rises from 1.26% to 4.58%.

First: O=C1CCCc2occ(-c3ccc([N+](=O)[O-])cc3)c21
Second: O=C(Nc1cccc([N+](=O)[O-])c1)C12CC3CC(CC(C3)C1)C2
The “% Inhibition @ 10 uM” value of the first is lower: 0.98% for the first, 3.12% for the second.

Compared with `CC(C)C[C@H](NC(=O)OCc1ccccc1Br)C(=O)NCC#N`, `CC1=C(C(=O)NCCCN(Cc2ccccc2)C(C)C)C2(CCCCCC2)OC1=O` is higher in “% Inhibition @ 10 uM” value: -10.1% for the first, -3.22% for the second.

First: CCN1C(=O)S/C(=C/c2ccc(-c3ccccc3C#N)o2)C1=O
Second: O=C(CCCN1C(=O)c2cccc3cccc(c23)C1=O)N1CCN(C/C=C/c2ccccc2)CC1
The “% Inhibition @ 10 uM” value of the first is higher: 4.44% for the first, -2.13% for the second.

First: COC(=O)c1cnn2c1NCN(CCc1ccc(OC)c(OC)c1)C2
Second: COc1ccc(CN2CCc3ccccc3C2)cc1C
The “% Inhibition @ 10 uM” value of the first is higher: 0.66% for the first, -0.127% for the second.

Going from `CC(C)NS(=O)(=O)c1cccnc1N1CCN(C)CC1` to `Cc1ccc(C)c(CN2CCN(CCO)CC2)c1`, the “% Inhibition @ 10 uM” value falls from 4.83% to -0.856%.

Compared with `CCOc1cc(C(=O)N2CCN(C/C=C/c3ccccc3)CC2)cc(OCC)c1OCC`, `CN(C)c1ccccc1NC(=O)c1scc2c1CCCC2` is lower in “% Inhibition @ 10 uM” value: 2.32% for the first, -3.09% for the second.

Compared with `CCOC(=O)N1CCC(NC(=O)C2CCN(S(C)(=O)=O)CC2)CC1`, `CC1CCN(c2nc(Cl)nc(N3CCC(C)CC3)n2)CC1` is higher in “% Inhibition @ 10 uM” value: -4.97% for the first, 0.343% for the second.

Compared with `Cc1nc2c(c(C)c1CCC(=O)N1CCC(C)CC1)c(=O)n(C)c(=O)n2C`, `Cc1cc(C)cc(OCCc2c(C)nc(N)nc2O)c1` is higher in “% Inhibition @ 10 uM” value: -3.1% for the first, 0.9% for the second.

First: CN1CCC(N(C)C2CCC(c3ccccc3)CC2)CC1 (stereo not drawn)
Second: Cc1cccc(C)c1OCC(=O)N(Cc1cccs1)C1CCS(=O)(=O)C1 (stereo not drawn)
The “% Inhibition @ 10 uM” value of the first is higher: -0.0908% for the first, -1.33% for the second.

First: Cc1cc(NCCc2ccc(Cl)cc2)n2ncnc2n1
Second: CCc1ccc(-c2cn3c(n2)sc2cc(Cl)ccc23)cc1
The “% Inhibition @ 10 uM” value of the first is higher: -2.8% for the first, -3.77% for the second.

Source: article PMC6919601, “Identification of Plasmodium dipeptidyl aminopeptidase allosteric inhibitors by high throughput screening” (PLoS ONE, 2019)
